{"source": "PubChem BioAssay AID463173", "about": "(ICCB-Longwood Screening Facility, Harvard Medical School, 2010)", "note": "Hit rate of the full screen: of about 52,000 compounds, about 1,700 (3.3%) were called active. Cut-off read from the data, not from the text of the source: active = survival mostly below about 52% (no sharp cut-off); inactive = mostly above about 56%. This is one part of the list."}
{"tested_on": "Wild type", "assay": "S. aureus survival, RN4220 and DeltatarO strains – OD600, teichoic acid synthesis inhibitors, primary screen (AID 463173)", "conditions": "S. aureus RN4220 wild type/DeltatarO growth, OD600, 18 h, stronger effect = lower value, screened at 18.75 µg/mL (by protocol)"}
{"smiles": "CCSc1nnc(C2CCCN(CC(=O)NC3CCCCC3C)C2)n1CC", "note": "(configuration not stated)", "survival": "inactive: 125%"}
{"smiles": "Cc1ccc2cc(C#N)c(SCC(=O)Nc3ccccc3N3CCOCC3)nc2c1C", "survival": "inactive: 102%"}
{"smiles": "Cc1ccccc1OCC(=O)Nc1c(C(=O)Nc2ccccc2F)oc2ccccc12", "survival": "inactive: 127%"}
{"smiles": "CC(=O)NNc1ncnc2c1cnn2-c1ccccc1", "survival": "inactive: 64%"}
{"smiles": "CCOc1ccc(NC(=O)N2CC3CCCN3c3ccccc32)cc1", "note": "(configuration not stated)", "survival": "inactive: 81%"}
{"smiles": "C=CCNC(=S)/N=c1\\sccn1C", "survival": "inactive: 88%"}
{"smiles": "COC(=O)c1cnc(N2CCN(c3ccc(OC)cc3)CC2)c2ccccc12", "survival": "inactive: 83%"}
{"smiles": "Cc1ccccc1NS(=O)(=O)c1ccc2[nH]cc(C(=O)NCCc3ccccc3)c(=O)c2c1", "survival": "inactive: 74%"}
{"smiles": "CCOC(=O)c1ccc(NC(=O)CS(=O)(=O)Cc2nc(-c3ccc(C)cc3)oc2C)cc1", "survival": "inactive: 87%"}
{"smiles": "CCCCc1ccc(NC(=O)CSc2nc3ccccc3nc2N2CCCCC2)cc1", "survival": "inactive: 41%"}
{"smiles": "CCCNC(=O)CCc1c(C)nc2nc(CNC(=O)c3ccccc3)nn2c1C", "survival": "inactive: 84%"}
{"smiles": "COC(=O)c1c(-c2ccc(Cl)cc2)noc1N1CCN(c2ccc(C(C)=O)cc2)CC1", "survival": "inactive: 68%"}
{"smiles": "Cc1ccc(F)cc1NC(=O)CSc1nc(-c2cccs2)cc(C(F)(F)F)n1", "survival": "inactive: 92%"}
{"smiles": "CCOc1ccc(NC(=O)C(CC)n2nc(C)c3c(C)n(-c4ccccc4)nc3c2=O)cc1", "note": "(configuration not stated)", "survival": "inactive: 79%"}
{"smiles": "COc1ccc(NC(=O)c2oc3ccccc3c2NC(=O)c2cc3ccccc3o2)c(OC)c1", "survival": "inactive: 86%"}
{"smiles": "COc1ccc(-c2csc(NC(=O)C(C)C)n2)cc1", "survival": "inactive: 104%"}
{"smiles": "CCOc1ccc(NC(=O)CSc2nnnn2C2CCCC2)cc1", "survival": "inactive: 103%"}
{"smiles": "Cc1ccc(NC(=O)CN2C(=O)CC(c3ccco3)Sc3ccccc32)cc1Cl", "note": "(configuration not stated)", "survival": "inactive: 83%"}
{"smiles": "O=C1OC2(CCCC2)OC(=O)C1=CNc1ccccc1", "survival": "inactive: 93%"}
{"smiles": "COc1cc(OC)cc(-n2c(=O)c3sccc3n(Cc3ccc(F)cc3)c2=O)c1", "survival": "inactive: 149%"}
{"smiles": "C=CCNC(=O)c1cc2n(n1)C(C(F)(F)F)CC(c1ccco1)N2", "note": "(configuration not stated)", "survival": "inactive: 95%"}
{"smiles": "COc1cc(OC)c(NC(=O)Nc2ccc3c(c2)N(C)C(=O)c2ccccc2S3)cc1Cl", "survival": "inactive: 120%"}
{"smiles": "Cc1ccc(-c2onc(C)c2C)cc1S(=O)(=O)N1CCN(c2ccccc2F)CC1", "survival": "inactive: 87%"}
{"smiles": "CCOc1ccccc1CNC(=O)c1ccc(-n2c(C)cc3c2CCC(C)C3)cc1", "note": "(configuration not stated)", "survival": "inactive: 97%"}
{"smiles": "COC(=O)c1ccccc1NC(=O)CCCn1nc(C)c2c(C)n(-c3ccccc3)nc2c1=O", "survival": "inactive: 74%"}
{"smiles": "COc1cccc(NC(=O)CCNC(=O)Cn2cnc3ccccc3c2=O)c1", "survival": "inactive: 67%"}
{"smiles": "CCn1c2ccccc2c2cc(CN3CCN(Cc4cccc(Cl)c4)CC3)ccc21", "survival": "active: 0%"}
{"smiles": "COc1cc(C(CC(=O)NCc2ccccc2Cl)N2Cc3ccccc3C2=O)cc(OC)c1OC", "note": "(configuration not stated)", "survival": "inactive: 89%"}
{"smiles": "COc1ccc(CCNC(=O)CN2C(=O)COc3ccc(S(=O)(=O)N4CCCC4)cc32)cc1OC", "survival": "inactive: 81%"}
{"smiles": "Cc1ccc(Cl)cc1N1CCN(c2nc3ccccc3c3nc(-c4cccnc4)nn23)CC1", "survival": "inactive: 123%"}
{"smiles": "Cc1ccc(CNC(=O)c2cc(-c3ccc(C)c(C)c3)nc3ccccc23)cc1", "survival": "inactive: 81%"}
{"smiles": "Cc1ccc(C(=O)O)cc1NC(=O)c1nsc2ccccc12", "survival": "inactive: 74%"}
{"smiles": "COc1ccc(-c2csc(C)n2)cc1", "survival": "inactive: 104%"}
{"smiles": "Cc1ccc(NC(=O)C(=O)NCC(c2cccnc2)N2CCN(Cc3ccccc3)CC2)cc1Cl", "note": "(configuration not stated)", "survival": "inactive: 79%"}
{"smiles": "C/C=N/NC(=O)CSc1nc2ccccc2s1", "survival": "inactive: 107%"}
{"smiles": "CCCOc1ccc(Oc2nc(NC)nc(N3CCOCC3)n2)nn1", "survival": "inactive: 106%"}
{"smiles": "COC(=O)c1sc(N2C(=O)c3oc4ccc(C)cc4c(=O)c3C2c2ccc(OC)cc2)nc1C", "note": "(configuration not stated)", "survival": "inactive: 134%"}
{"smiles": "Cc1cc(Cl)ccc1NC(=O)CSc1nc2c(c(=O)[nH]1)CCC2", "survival": "inactive: 80%"}
{"smiles": "O=C(CCSc1nnc(-c2ccco2)o1)Nc1ccccc1", "survival": "inactive: 97%"}
{"smiles": "CCOc1ccc(CCNC(=O)Cn2nc(CC)n3c(cc4sccc43)c2=O)cc1", "survival": "inactive: 123%"}
{"smiles": "Fc1ccc(Cn2c(-c3cccc(Br)c3)nc3ccccc32)cc1", "survival": "inactive: 120%"}
{"smiles": "Cc1nn2c(C)c(C(=O)NCC(C)c3ccccc3)cnc2c1-c1ccccc1", "note": "(configuration not stated)", "survival": "inactive: 75%"}
{"smiles": "O=C(Nc1c2c(nn1-c1ccc(Cl)cc1)CS(=O)(=O)C2)c1ccccc1F", "survival": "inactive: 73%"}
{"smiles": "O=C(NCCc1nc2ccccc2n1CCCOc1ccc(Cl)cc1)C1CCCCC1", "survival": "active: 10%"}
{"smiles": "COc1ccc(C(=O)Nc2noc3ccccc23)cc1", "survival": "inactive: 73%"}
{"smiles": "CCN(CC)c1ccc2cc(C(=O)Nc3ccc(NC(C)=O)cc3)c(=O)oc2c1", "survival": "inactive: 100%"}
{"smiles": "Cc1cccc(NC(=O)CSc2nccn2-c2cccc(Cl)c2)c1C", "survival": "inactive: 58%"}
{"smiles": "CCC(C(=O)NCc1ccccc1Cl)n1nc(C)c2sc3ccccc3c2c1=O", "note": "(configuration not stated)", "survival": "inactive: 104%"}
{"smiles": "Cc1ccc(NC(=O)c2sc(-n3nc(C)c(Cc4ccc5c(c4)OCO5)c3C)nc2C)cc1C", "survival": "inactive: 124%"}
{"smiles": "C=CCC(NCc1ccco1)c1ccccc1", "note": "(configuration not stated)", "survival": "inactive: 106%"}
{"smiles": "CCOc1cc(C2c3c(-c4ccccc4O)n[nH]c3C(=O)N2Cc2cccnc2)ccc1O", "note": "(configuration not stated)", "survival": "inactive: 89%"}
{"smiles": "Cc1cc(C)cc(NC(=O)CSCc2cc(=O)c3ccc(C)c(C)c3[nH]2)c1", "survival": "inactive: 74%"}
{"smiles": "CNS(=O)(=O)c1cn(CC(=O)N2CCN(c3cc(C)ccc3C)CC2)cc1S(=O)(=O)NC", "survival": "inactive: 83%"}
{"smiles": "CS(=O)(=O)N1CCN(S(=O)(=O)c2ccccc2)CC1", "survival": "inactive: 100%"}
{"smiles": "O=C(CCCn1c(=O)c2sccc2n(Cc2cccc(Cl)c2)c1=O)NCc1ccc2c(c1)OCO2", "survival": "inactive: 82%"}
{"smiles": "CCOC(=O)CN1C(=O)c2cccnc2Oc2ccccc21", "survival": "inactive: 69%"}
{"smiles": "O=c1cc(-c2ccccc2)n2c(SCc3cccc([N+](=O)[O-])c3)nnc2[nH]1", "survival": "inactive: 97%"}
{"smiles": "COc1ccc(NC(=O)CSc2nc(-c3ccco3)nc3cc(=O)[nH]n23)cc1", "survival": "inactive: 71%"}
{"smiles": "NC(=O)C1CCN(C(=O)Cn2c(-c3cccs3)cc3ccccc32)CC1", "survival": "inactive: 102%"}
{"smiles": "CCOc1ccc(NC(=O)CN2CCN(CC(=O)Nc3ccccc3OCC)CC2)cc1", "survival": "inactive: 81%"}
{"smiles": "Cc1cc(C(=O)Nc2c(C)nn(Cc3ccc(F)cc3)c2C)no1", "survival": "inactive: 135%"}
{"smiles": "CCOc1cc(C(=O)N2CCC(c3ccncc3)CC2)cc(OCC)c1OCC", "survival": "active: -1%"}
{"smiles": "COc1ccc(Cl)cc1NC(=O)CSc1nc(-c2ccco2)cc(C(F)(F)F)n1", "survival": "inactive: 33%"}
{"smiles": "Cc1ccc(NC2OC(=O)c3ccccc32)cc1", "note": "(configuration not stated)", "survival": "inactive: 76%"}
{"smiles": "CCc1ccccc1Nc1nc2ccccc2n2cnnc12", "survival": "inactive: 147%"}
{"smiles": "COc1ccc(CCNC(=O)CCn2c(=O)c3cccn3c3cccnc32)cc1OC", "survival": "inactive: 93%"}
{"smiles": "CCCCN(c1ccccc1)S(=O)(=O)c1ccc2c(c1)CC(C)N2C(=O)C1CC1", "note": "(configuration not stated)", "survival": "inactive: 75%"}
{"smiles": "COc1ccccc1-n1nc(-c2ccccc2)c2cnc3cc(C(F)(F)F)ccc3c21", "survival": "inactive: 83%"}
{"smiles": "CCOC(=O)c1ccc(NC(=O)COC(=O)c2cn(CC)c3nc(C)ccc3c2=O)cc1", "survival": "inactive: 80%"}
{"smiles": "COc1ccc(-c2oc3ncn4nc(-c5ccccc5C)nc4c3c2-c2ccc(OC)cc2)cc1", "survival": "inactive: 118%"}
{"smiles": "Cc1cccc(C)c1OC(=O)CSc1nnc(-c2cccs2)o1", "survival": "inactive: 83%"}
{"smiles": "O=C(CSc1nc(C2CC2)nc2ccccc12)N1CCCCC1", "survival": "inactive: 107%"}
{"smiles": "N#CCNS(=O)(=O)c1ccccc1", "survival": "inactive: 110%"}
{"smiles": "COc1ccc(CNC(=O)CCc2nnc3n(CC(C)C)c(=O)c4ccccc4n23)cc1", "survival": "inactive: 84%"}
{"smiles": "O=S(=O)(Nc1ccc(-c2ccc(N3CCCC3)nn2)cc1)c1cccc(C(F)(F)F)c1", "survival": "inactive: 123%"}
{"smiles": "Cc1ccc(C)c(CN2C(=O)c3ccccc3S(=O)(=O)c3ccc(C(=O)N4CCN(c5ccccc5F)CC4)cc32)c1", "survival": "inactive: 75%"}
{"smiles": "CC1CCCCN1S(=O)(=O)c1ccc(NC(=O)CSc2nc3ccccc3o2)cc1", "note": "(configuration not stated)", "survival": "inactive: 123%"}
{"smiles": "CCn1ccc2cc(S(=O)(=O)N3CCCN(C(=O)NCCOC)CC3)ccc21", "survival": "inactive: 88%"}
{"smiles": "COc1ccc(C)cc1NS(=O)(=O)c1ccc2[nH]c(=O)c(=O)[nH]c2c1", "survival": "inactive: 95%"}
{"smiles": "CCCCNc1c2c3c(cccc3[nH]c1=O)C(=O)c1ccccc1-2", "survival": "inactive: 115%"}
{"smiles": "CCS(=O)(=O)N1CCc2cc(C(=O)Nc3cc(C(F)(F)F)ccc3Cl)ccc21", "survival": "inactive: 89%"}
{"smiles": "COc1cccc(NC(=O)Cn2c(=O)n(CCCCC(=O)NCCc3ccccc3)c(=O)c3ccccc32)c1", "survival": "inactive: 97%"}
{"smiles": "CC1CCN(C(=O)C2CCN(Cc3cccc(O)c3)CC2)CC1", "survival": "inactive: 111%"}
{"smiles": "CCOC(=O)C1=C(CN2CCN(c3cc(C)ccc3C)CC2)NC(=O)NC1c1ccc(Cl)cc1", "note": "(configuration not stated)", "survival": "inactive: 93%"}
{"smiles": "Cc1cccc(NC(=O)c2ccc(-c3nc(CSc4ccccc4)c(C)o3)cc2)c1C", "survival": "inactive: 67%"}
{"smiles": "Cc1nc2sc(C(N)=O)c(N)c2c(-c2ccc(Br)cc2)c1C(=O)Nc1ccc(Cl)cc1", "survival": "active: -7%"}
{"smiles": "O=C(CSc1nnc2ccc3ccccc3n12)c1ccc(F)cc1", "survival": "inactive: 63%"}
{"smiles": "COc1ccccc1CNC(=O)c1cnc2sc(N3CCCCCC3)nn2c1=O", "survival": "inactive: 70%"}
{"smiles": "O=c1c2ccccc2n(Cc2ccccc2F)c(=O)n1-c1cccc(F)c1", "survival": "inactive: 75%"}
{"smiles": "Cc1ccc(C(=O)Nc2onc3c2CCCC3)cc1", "survival": "inactive: 80%"}
{"smiles": "Cc1ccccc1C(=O)Nc1ccc2c(c1)CCCN2C(=O)c1cccs1", "survival": "inactive: 77%"}
{"smiles": "CSc1ccc(CNC(=O)CCn2c(=O)c3cccn3c3ccc(F)cc32)cc1", "survival": "inactive: 75%"}
